Laboratory results: patent US8415310B2, “Isoxazoline derivatives as antiparasitic agents” (AH USA 42 LLC, priority 2010, dated 2013)
Some results were stated once for a whole list of compounds, not compound by compound.

Legend:
[1] = test system: Haematobia irritans; experiment: Horn Fly (Haematobia irritans) Feed Assay; assay type: in vivo; details: horn flies fed on treated citrated bovine blood; knockdown and mortality at approximately 2 and 24 hours
[2] = test system: Ctenocephalides felis; experiment: Flea (Ctenocephalides felis) Membrane Feed Assay-Adult; assay type: in vivo; details: adult fleas fed on treated citrated bovine blood approximately 2 hours; knockdown and/or death at approximately 2 and 24 hours

Structure (SMILES)	lethal dose 90% (LD^90) [1] [µg/mL]	lethal dose 90% (LD^90) [2] [µg/mL]
O=C(c1ccnnc1)N1CC(F)(c2ccc(C3=NOC(c4cc(Cl)c(F)c(Cl)c4)(C(F)(F)F)C3)cc2)C1 (stereo not drawn) [Example 138, 4-[(3-{4-[5-(3,5-dichloro-4-fluorophenyl)-5-(trifluoromethyl)-4,5-dihydroisoxazol-3-yl]phenyl}-3-fluoroazetidin-1-yl)carbonyl]pyridazine]	≤ 3	≤ 1
CS(=O)(=O)CC(=O)N1CC(F)(c2ccc(C3=NOC(c4cc(Cl)c(F)c(Cl)c4)(C(F)(F)F)C3)cc2)C1 (stereo not drawn) [Example 140, 5-(3,5-dichloro-4-fluorophenyl)-3-(4-{3-fluoro-1-[(methylsulfonyl)acetyl]azetidin-3-yl}phenyl)-5-(trifluoromethyl)-4,5-dihydroisoxazole]	≤ 3	≤ 1
O=C(Cn1cccn1)N1CC(F)(c2ccc(C3=NOC(c4cc(Cl)c(F)c(Cl)c4)(C(F)(F)F)C3)cc2)C1 (stereo not drawn) [Example 141, 5-(3,5-dichloro-4-fluorophenyl)-3-{-4-[3-fluoro-1-(1H-pyrazol-1-ylacetyl)azetidin-3-yl]phenyl}-5-(trifluoromethyl)-4,5-dihydroisoxazole]	≤ 1	≤ 0.3
CC(C)(O)C(=O)N1CC(F)(c2ccc(C3=NOC(c4cc(Cl)c(F)c(Cl)c4)(C(F)(F)F)C3)cc2)C1 (stereo not drawn) [Example 145, 1-(3-{4-[5-(3,5-dichloro-4-fluorophenyl)-5-(trifluoromethyl)-4,5-dihydroisoxazol-3-yl]phenyl}-3-fluoroazetidin-1-yl)-2-methyl-1-oxopropan-2-ol]	≤ 1	≤ 1
CN(C)S(=O)(=O)CC(=O)N1CC(F)(c2ccc(C3=NOC(c4cc(Cl)c(F)c(Cl)c4)(C(F)(F)F)C3)cc2)C1 (stereo not drawn) [Example 147, 2-(3-{4-[5-(3,5-dichloro-4-fluorophenyl)-5-(trifluoromethyl)-4,5-dihydroisoxazol-3-yl]phenyl}-3-fluoroazetidin-1-yl)-N,N-dimethyl-2-oxoethanesulfonamide]	≤ 3	≤ 3
O=C(CSC(F)(F)F)N1CC(F)(c2ccc(C3=NOC(c4cc(Cl)c(F)c(Cl)c4)(C(F)(F)F)C3)cc2)C1 (stereo not drawn) [Example 148, 5-(3,5-dichloro-4-fluorophenyl)-3-[4-(3-fluoro-1-{[(trifluoromethyl)thio]acetyl}azetidin-3-yl)phenyl]-5-(trifluoromethyl)-4,5-dihydroisoxazole]	≤ 1	≤ 1
O=C(C1CC1)N1CC(Cl)(c2ccc(C3=NOC(c4cc(Cl)c(F)c(Cl)c4)(C(F)(F)F)C3)cc2)C1 (stereo not drawn) [Example 154, 3-{-4-[3-chloro-1-(cyclopropylcarbonyl)azetidin-3-yl]phenyl}-5-(3,5-dichloro-4-fluorophenyl)-5-(trifluoromethyl)-4,5-dihydroisoxazole]	≤ 3	≤ 3
C[S+]([O-])CC(=O)N1CC(F)(c2ccc(C3=NOC(c4cc(Cl)c(F)c(Cl)c4)(C(F)(F)F)C3)cc2)C1 (stereo not drawn) [Example 162, 5-(3,5-dichloro-4-fluorophenyl)-3-(4-{3-fluoro-1-[(methylsulfinyl)acetyl]azetidin-3-yl}phenyl)-5-(trifluoromethyl)-4,5-dihydroisoxazole]	≤ 1	≤ 1
[N-]=[N+]=NC1(c2ccc(C3=NOC(c4cc(Cl)c(Cl)c(Cl)c4)(C(F)(F)F)C3)cc2)CN(C(=O)C2CC2)C1 (stereo not drawn) [Example 163, 3-{-4-[3-azido-1-(cyclopropylcarbonyl)azetidin-3-yl]phenyl}-5-(3,4,5-trichlorophenyl)-5-(trifluoromethyl)-4,5-dihydroisoxazole]	≤ 3	≤ 1
